Source: PMC10581897
No constants are given. Whether binding was seen depends on the method and setting. For some assays here: Binding seen in cells or lysates may run through a third protein. Some results given as binding are weak or reduced against the parent protein; the word gives no strength. Blank lines part the entries; values can stand above or below the substance they belong to.

Protein sequences, listed by entry. Tags and fused reporters are not part of them.
UniProt Q13546: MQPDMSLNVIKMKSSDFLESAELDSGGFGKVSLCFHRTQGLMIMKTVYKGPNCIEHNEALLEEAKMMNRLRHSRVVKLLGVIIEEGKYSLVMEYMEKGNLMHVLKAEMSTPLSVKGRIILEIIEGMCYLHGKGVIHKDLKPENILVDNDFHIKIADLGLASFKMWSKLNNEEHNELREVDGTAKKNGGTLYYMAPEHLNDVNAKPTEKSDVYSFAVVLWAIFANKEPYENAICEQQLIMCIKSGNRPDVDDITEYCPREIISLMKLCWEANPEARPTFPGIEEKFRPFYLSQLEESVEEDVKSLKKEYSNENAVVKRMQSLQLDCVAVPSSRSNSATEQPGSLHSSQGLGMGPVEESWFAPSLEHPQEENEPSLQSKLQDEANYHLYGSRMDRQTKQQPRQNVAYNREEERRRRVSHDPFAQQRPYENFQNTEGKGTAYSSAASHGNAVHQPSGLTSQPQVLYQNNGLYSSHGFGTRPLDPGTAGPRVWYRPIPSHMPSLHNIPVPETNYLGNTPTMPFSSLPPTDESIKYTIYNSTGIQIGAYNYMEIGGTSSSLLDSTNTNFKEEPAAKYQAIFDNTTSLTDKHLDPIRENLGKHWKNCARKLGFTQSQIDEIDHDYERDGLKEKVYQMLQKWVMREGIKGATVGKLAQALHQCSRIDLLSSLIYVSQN
UniProt P35222: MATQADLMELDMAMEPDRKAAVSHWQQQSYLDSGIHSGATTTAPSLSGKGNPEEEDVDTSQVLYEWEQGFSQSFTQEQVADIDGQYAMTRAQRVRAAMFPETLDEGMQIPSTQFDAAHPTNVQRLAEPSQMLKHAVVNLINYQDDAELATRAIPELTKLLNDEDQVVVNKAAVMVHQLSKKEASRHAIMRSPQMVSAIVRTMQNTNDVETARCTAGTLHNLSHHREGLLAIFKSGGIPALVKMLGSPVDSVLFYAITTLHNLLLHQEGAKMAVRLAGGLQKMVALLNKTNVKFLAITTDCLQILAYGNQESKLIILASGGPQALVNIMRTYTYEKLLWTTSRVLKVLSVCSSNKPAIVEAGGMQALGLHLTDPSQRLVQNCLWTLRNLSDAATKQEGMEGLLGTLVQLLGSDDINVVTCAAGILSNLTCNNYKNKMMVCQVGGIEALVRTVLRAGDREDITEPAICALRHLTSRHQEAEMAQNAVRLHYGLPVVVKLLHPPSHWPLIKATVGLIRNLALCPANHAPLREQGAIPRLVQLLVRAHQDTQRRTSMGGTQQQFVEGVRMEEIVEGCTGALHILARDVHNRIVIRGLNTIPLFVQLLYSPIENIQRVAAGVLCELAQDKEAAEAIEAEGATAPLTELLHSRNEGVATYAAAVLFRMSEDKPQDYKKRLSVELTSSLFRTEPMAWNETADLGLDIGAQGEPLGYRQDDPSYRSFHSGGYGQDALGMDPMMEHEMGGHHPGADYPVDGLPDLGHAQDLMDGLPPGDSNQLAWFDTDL
UniProt Q13489: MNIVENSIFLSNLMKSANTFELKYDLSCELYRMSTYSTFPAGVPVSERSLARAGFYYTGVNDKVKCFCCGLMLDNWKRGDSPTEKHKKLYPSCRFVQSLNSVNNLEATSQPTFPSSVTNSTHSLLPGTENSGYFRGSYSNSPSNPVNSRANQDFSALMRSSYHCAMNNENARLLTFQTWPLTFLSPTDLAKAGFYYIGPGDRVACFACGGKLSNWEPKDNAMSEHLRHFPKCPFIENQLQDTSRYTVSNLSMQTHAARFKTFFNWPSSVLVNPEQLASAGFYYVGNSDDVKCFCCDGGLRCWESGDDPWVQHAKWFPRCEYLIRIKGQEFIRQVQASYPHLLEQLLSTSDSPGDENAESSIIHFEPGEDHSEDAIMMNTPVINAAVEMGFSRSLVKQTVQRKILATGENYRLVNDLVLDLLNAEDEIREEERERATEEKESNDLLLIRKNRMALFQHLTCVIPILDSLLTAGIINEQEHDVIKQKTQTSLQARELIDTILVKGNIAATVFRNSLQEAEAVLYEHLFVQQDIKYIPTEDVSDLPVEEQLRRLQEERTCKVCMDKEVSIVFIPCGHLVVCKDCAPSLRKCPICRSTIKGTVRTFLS

Assays:
HIS-tagged RIP1 = HIS-tagged RIP1 (UniProt Q13546); experiment: pull-down; 200 ng GST-tagged β-catenin incubated with 200 ng HIS-tagged RIP1 in buffer A (50 mM Tris-HCl pH 7.5, 100 mM NaCl, 10% glycerol) with 0.1% Triton X-100, 1.5 h at 4 °C; captured on Ni-NTA agarose; IB with anti-GST and anti-HIS; both purified
[1] = biological target: β-catenin, endogenous (human (endogenous in HCT116 and DLD-1)) (UniProt P35222); experiment: co-IP; endogenous proteins; HCT116 and DLD-1 lysates (0.7% NP-40 lysis buffer), IP with anti-β-catenin antibody at 4 °C overnight, protein G-Sepharose, IB for the partner; cells treated with WNT3A, or transfected with Flag-Mock or Flag-RIP1, or with control siRNA or siRIP1
[2] = biological target: RIP1 (receptor-interacting protein kinase 1), endogenous (human (endogenous in HCT116 and DLD-1)) (UniProt Q13546); experiment: co-IP; endogenous proteins; HCT116 and DLD-1 cells treated with or without WNT3A; IP with RIP1 antibody, IB for β-catenin; 0.7% NP-40 lysis buffer, protein G-Sepharose
Flag-RIP1 = Flag-RIP1 (UniProt Q13546); experiment: co-IP; HCT116 and DLD-1 cells transiently transfected with Flag-Mock vector or Flag-RIP1, without WNT; IP with anti-Flag, IB with anti-β-catenin

- binding (HIS-tagged RIP1): binds
Substance: GST-tagged β-catenin (from UniProt P35222 1-781)

- binding [1]: no binding
Substance: cIAP2, endogenous (from UniProt Q13489 1-604)

- binding [2]: binds
- binding (Flag-RIP1): binds
Substance: β-catenin, endogenous (from UniProt P35222 1-781)

- binding [1]: binds
Substance: RIP1 (receptor-interacting protein kinase 1), endogenous (from UniProt Q13546 1-671)
